In article PMC3526275 one finds binding data, which are given here for four molecules.

Chains of the proteins cited; added tags and fusions are not shown. Lines headed by an entry give the natural chain unless they say otherwise; changes in a name come on top. Residues count along the entry.
UniProt Q5DW34: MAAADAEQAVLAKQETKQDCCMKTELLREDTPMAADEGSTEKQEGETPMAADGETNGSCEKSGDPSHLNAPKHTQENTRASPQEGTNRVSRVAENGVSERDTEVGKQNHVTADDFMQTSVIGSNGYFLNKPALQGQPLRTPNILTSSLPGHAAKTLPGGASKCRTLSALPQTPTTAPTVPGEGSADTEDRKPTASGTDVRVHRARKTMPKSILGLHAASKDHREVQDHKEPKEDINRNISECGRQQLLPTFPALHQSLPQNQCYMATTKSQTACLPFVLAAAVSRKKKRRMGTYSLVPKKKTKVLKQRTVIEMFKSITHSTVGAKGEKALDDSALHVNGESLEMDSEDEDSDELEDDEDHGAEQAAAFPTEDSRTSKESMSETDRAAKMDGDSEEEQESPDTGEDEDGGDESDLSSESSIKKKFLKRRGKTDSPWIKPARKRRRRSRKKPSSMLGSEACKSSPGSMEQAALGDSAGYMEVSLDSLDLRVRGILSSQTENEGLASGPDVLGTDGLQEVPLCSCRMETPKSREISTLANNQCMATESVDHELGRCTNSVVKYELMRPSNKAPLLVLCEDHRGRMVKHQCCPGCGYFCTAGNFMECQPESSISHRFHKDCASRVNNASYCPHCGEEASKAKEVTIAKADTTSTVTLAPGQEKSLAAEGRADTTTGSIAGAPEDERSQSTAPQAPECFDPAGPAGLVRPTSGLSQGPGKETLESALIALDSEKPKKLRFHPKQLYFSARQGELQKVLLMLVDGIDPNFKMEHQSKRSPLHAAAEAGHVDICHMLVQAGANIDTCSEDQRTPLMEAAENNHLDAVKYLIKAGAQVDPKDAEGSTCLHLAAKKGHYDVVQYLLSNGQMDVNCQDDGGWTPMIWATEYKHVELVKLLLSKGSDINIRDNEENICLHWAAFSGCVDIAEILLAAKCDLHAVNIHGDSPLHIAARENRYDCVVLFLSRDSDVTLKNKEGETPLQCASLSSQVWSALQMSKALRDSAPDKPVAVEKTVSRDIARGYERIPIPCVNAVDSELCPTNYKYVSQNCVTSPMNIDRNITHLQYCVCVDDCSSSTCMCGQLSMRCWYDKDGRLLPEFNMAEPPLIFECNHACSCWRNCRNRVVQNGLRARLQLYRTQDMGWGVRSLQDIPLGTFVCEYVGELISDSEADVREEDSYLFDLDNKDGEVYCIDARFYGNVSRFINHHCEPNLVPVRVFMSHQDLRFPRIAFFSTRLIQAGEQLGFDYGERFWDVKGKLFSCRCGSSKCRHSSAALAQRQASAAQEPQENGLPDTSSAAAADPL
UniProt Q86YI8: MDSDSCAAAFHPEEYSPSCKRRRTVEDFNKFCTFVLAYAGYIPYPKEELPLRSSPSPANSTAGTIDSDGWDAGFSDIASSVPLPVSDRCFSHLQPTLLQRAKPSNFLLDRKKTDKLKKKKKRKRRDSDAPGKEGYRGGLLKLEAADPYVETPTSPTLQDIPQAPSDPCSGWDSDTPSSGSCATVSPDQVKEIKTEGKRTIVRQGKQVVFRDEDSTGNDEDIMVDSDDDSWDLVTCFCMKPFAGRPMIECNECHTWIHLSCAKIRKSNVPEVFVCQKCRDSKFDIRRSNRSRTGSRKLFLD
ProtA-SPOC1 (amino acids 150–300): residues 150-300 of Q86YI8

Results are given in words; binding and its absence hold for the method and conditions named. For part of these data: Binding seen in cells or lysates may run through a third protein. Some results given as binding are weak or reduced against the parent protein; the word gives no strength. For part of these data: Tags and fused reporters may be left off the sequences shown.

Test [1] deals with GLP (endogenous, C2C12) (mouse (endogenous in C2C12)) (UniProt Q5DW34). The test can be described thus: co-IP; immunoprecipitation of endogenous GLP or SUV39H1 from C2C12 cell extracts, control antibody alongside; immunoblot for GLP, SUV39H1, SETDB1 and SPOC1. Background: A western blot detects proteins with antibodies after separation by electrophoresis.
Test [2] concerns the target ProtA-SPOC1 (amino acids 150–300) (human) (UniProt Q86YI8). Put plainly: LUMIER (luciferase co-precipitation); protein A and renilla luciferase fusion proteins coexpressed in HEK293 cells; protein A fusions captured on IgG-coated magnetic beads; copurified luciferase activity as Z-score, Z-score ≥ 0.5 indicates an interaction.
Test [3] addresses ProtA-SPOC1 (amino acids 1–300) (human) (UniProt Q86YI8). The description is as above.

B1: SUV39H1 (endogenous, C2C12) (enzyme, UniProt O54864 1-412)
chain: MAENLKGCSVCCKSSWNQLQDLCRLAKLSCPALGVSKKNLYDFEVEYLCDYKKIREQEYYLVKWRGYPDSENTWEPRQNLKCIRVLKQFHKDLERELVRRHRRSKPPRHLDPNLANYLVQKAKQRRALQRWEQELNAKRSHLGRITVENEVDLDGPPRSFVYINEYRVGEGITLNQVAVGCECQDCLLAPTGGCCPGASLHKFAYNDQGQVRLKAGQPIYECNSRCCCGYDCPNRVVQKGIRYDLCIFRTNDGRGWGVRTLEKIRKNSFVMEYVGEIITSEEAERRGQIYDRQGATYLFDLDYVEDVYTVDAAYYGNISHFVNHSCDPNLQVYNVFIDNLDERLPRIAFFATRTIWAGEELTFDYNMQVDPVDMESTRMDSNFGLAGLPGSPKKRVRIECKCGTTACRKYLF
For the molecule B1, the binding entry in test [1] is listed as “binds”.

B2: Luc-KAP-1 (amino acids 401–600) (domain or fragment, UniProt Q13263 401-600)
chain: SAEAFGKIVAERPGTNSTGPAPMAPPRAPGPLSKQGSGSSQPMEVQEGYGFGSGDDPYSSAEPHVSGVKRSRSGEGEVSGLMRKVPRVSLERLDLDLTADSQPPVFKVFPGSTTEDYNLIVIERGAAAAATGQPGTAPAGTPGAPPLAGMAIVKEEETEAAIGAPPTATEGPETKPVLMALAEGPGAEGPRLASPSGSTS
For the molecule B2, the binding entry in test [2] and in test [3] was “no binding” each time.

B3: Luc-KAP-1 (amino acids 1–400) (domain or fragment, UniProt Q13263 1-400)
chain: MAASAAAASAAAASAASGSPGPGEGSAGGEKRSTAPSAAASASASAAASSPAGGGAEALELLEHCGVCRERLRPEREPRLLPCLHSACSACLGPAAPAAANSSGDGGAAGDGTVVDCPVCKQQCFSKDIVENYFMRDSGSKAATDAQDANQCCTSCEDNAPATSYCVECSEPLCETCVEAHQRVKYTKDHTVRSTGPAKSRDGERTVYCNVHKHEPLVLFCESCDTLTCRDCQLNAHKDHQYQFLEDAVRNQRKLLASLVKRLGDKHATLQKSTKEVRSSIRQVSDVQKRVQVDVKMAILQIMKELNKRGRVLVNDAQKVTEGQQERLERQHWTMTKIQKHQEHILRFASWALESDNNTALLLSKKLIYFQLHRALKMIVDPVEPHGEMKFQWDLNAWTK
For B3, the binding entry in test [2] is “binds”.

B4: Luc-KAP-1 (amino acids 601–835) (domain or fragment, UniProt Q13263 601-835)
chain: SGLEVVAPEGTSAPGGGPGTLDDSATICRVCQKPGDLVMCNQCEFCFHLDCHLPALQDVPGEEWSCSLCHVLPDLKEEDGSLSLDGADSTGVVAKLSPANQRKCERVLLALFCHEPCRPLHQLATDSTFSLDQPGGTLDLTLIRARLQEKLSPPYSSPQEFAQDVGRMFKQFNKLTEDKADVQSIIGLQRFFETRMNEAFGDTKFSAVLVEPPPMSLPGAGLSSQELSGGPGDGP
In the case of B4, the binding entry in test [2] and in test [3] was “no binding” in each case.
